Test results reported in US8044100B2, “Methods and compositions for treating amyloid-related diseases” (Bellus Health Inc., priority 2004, dated 2011).
Some entries share one result that the patent states for a list of compounds.

What follows are compounds tested against Aβ40 (Homo sapiens, UniProt P05067) (assay: Mass spectrometry (MS) assay for binding to soluble Aβ40). Conditions: 150 μM test compound and 30 μM solubilized Aβ40, pH 7.4.
Sequence of Aβ40 (P05067 672-711 limits assumed): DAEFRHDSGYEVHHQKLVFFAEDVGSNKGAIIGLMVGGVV

SMILES	Aβ binding (%)
CCC(CCN)S(=O)(=O)O (stereo not shown) [Compound N5, 1-aminopentane-3-sulfonic acid]	40-69%
CC(C)CC(CCN)S(=O)(=O)O (stereo not shown) [Compound N9, 1-amino-5-methyl-3-hexanesulfonic acid]	40-69%
NC(CCS(=O)(=O)O)C1CCCCC1 (stereo not shown) [Compound N10, 3-amino-3-cyclohexyl-1-propanesulfonic acid]	≧70%
CC1=C(C)CC(S(=O)(=O)O)C(CN)C1 (stereo not shown) [Compound N11, 6-(aminomethyl)-3,4-dimethylcyclohex-3-ene-1-sulfonic acid]	≧70%
CC1=C(C)CC(S(=O)(=O)O)C(CNC2C3CC4CC(C3)CC2C4)C1 (stereo not shown) [Compound N14, 6-(2-adamantylamino)methyl-3,4-dimethylcyclohex-3-ene-1-sulfonic acid]	40-69%
CCCCC(N)CCS(=O)(=O)O (stereo not shown) [Compound N16, 3-amino-1-heptanesulfonic acid]	≧70%
NCC1C2CCC(CC2)C1S(=O)(=O)O (stereo not shown) [Compound N33, 3-(aminomethyl)bicyclo[2.2.2]octane-2-sulfonic acid]	≧70%
O=S(=O)(O)CCCNCc1cccs1 [Compound N43, 3-[(thiophen-2-methyl)amino]-1-propanesulfonic acid]	40-69%
O=S(=O)(O)CCCNC1c2ccccc2-c2ccccc21 [Compound N44, 3-(9H-fluoren-9-ylamino)propane-1-sulfonic acid]	≧70%
O=S(=O)(O)CCCNCc1ccco1 [Compound N48, 3-[(2-furylmethyl)amino]-1-propanesulfonic acid]	40-69%
O=S(=O)(O)CCCNc1ccc2c(c1)CCC2 [Compound N49, 3-(5-indanylamino)-1-propanesulfonic acid]	40-69%
O=S(=O)(O)CCCNc1cccc2c1CCC2 [Compound N50, 3-(4-indanylamino)-1-propanesulfonic acid]	40-69%
CC(C)(NCCCS(=O)(=O)O)c1cc2ccccc2s1 [Compound N52, 3-{[2-(2-benzothiophenyl)-2-propyl]amino}-1-propanesulfonic acid]	≧70%
COc1cc2c(cc1OC)C(NCCCS(=O)(=O)O)CC2 (stereo not shown) [Compound N53, 3-[(5,6-dimethoxyindan-1-yl)amino]propane-1-sulfonic acid]	≧70%
CC(C)(NCCCS(=O)(=O)O)c1ccc(Cl)cc1 [Compound N54, 3-(4-chlorophenyl-2-propylamino)-1-propanesulfonic acid]	≧70%
CC(NCCCS(=O)(=O)O)c1cccs1 (stereo not shown) [Compound N55, 3-[(1-thien-2-ylethyl)amino]-1-propanesulfonic acid]	40-69%
COc1ccc2c(c1)CCC2NCCCS(=O)(=O)O (stereo not shown) [Compound N56, 3-[(5-methoxyindan-1-yl)amino]propane-1-sulfonic acid]	≧70%
CC(C)(NCCCS(=O)(=O)O)c1ccc(F)cc1 [Compound N57, 3-(4-fluorophenyl-2-propylamino)-1-propanesulfonic acid]	≧70%
O=S(=O)(O)CCCNC1CCc2cc(F)ccc21 (stereo not shown) [Compound N58, 3-[(5-fluoroindan-1-yl)amino]propane-1-sulfonic acid]	≧70%
CC1Cc2ccccc2C1NCCCS(=O)(=O)O (stereo not shown) [Compound N59, 3-[(2-methylindan-1-yl)amino]propane-1-sulfonic acid]	40-69%
Cc1ccc(C(C)(C)NCCCS(=O)(=O)O)s1 [Compound N60, 3-{[1-methyl-1-(5-methylthien-2-yl)ethyl]amino}-1-propanesulfonic acid]	40-69%
COc1cccc2c1CCC2NCCCS(=O)(=O)O (stereo not shown) [Compound N61, 3-[(4-methoxy-2,3-dihydro-1H-inden-1-yl)amino]propane-1-sulfonic acid]	≧70%
COc1ccc2c(c1)C(NCCCS(=O)(=O)O)CC2 (stereo not shown) [Compound N62, 3-[(6-methoxyinden-1-yl)amino]propane-1-sulfonic acid]	40-69%

Each compound was assayed on SH-SY5Y cells (assay: Neuroprotection: Aβ42-induced cell death in SH-SY5Y cells, Hoechst staining). Conditions: 12 μM Aβ1-42, 240 μM compound (1:20 Aβ:drug ratio), 24 hours.
Assay type: cell-based, human

SMILES	Inhibition of Aβ-induced toxicity (%)
CCC(CCN)S(=O)(=O)O (stereo not shown) [Compound N5, 1-aminopentane-3-sulfonic acid]	<20%
CC(C)CC(CCN)S(=O)(=O)O (stereo not shown) [Compound N9, 1-amino-5-methyl-3-hexanesulfonic acid]	<20%
NC(CCS(=O)(=O)O)C1CCCCC1 (stereo not shown) [Compound N10, 3-amino-3-cyclohexyl-1-propanesulfonic acid]	<20%
CC1=C(C)CC(S(=O)(=O)O)C(CN)C1 (stereo not shown) [Compound N11, 6-(aminomethyl)-3,4-dimethylcyclohex-3-ene-1-sulfonic acid]	<20%
CC1=C(C)CC(S(=O)(=O)O)C(CNC2C3CC4CC(C3)CC2C4)C1 (stereo not shown) [Compound N14, 6-(2-adamantylamino)methyl-3,4-dimethylcyclohex-3-ene-1-sulfonic acid]	20%-40%
CCCCC(N)CCS(=O)(=O)O (stereo not shown) [Compound N16, 3-amino-1-heptanesulfonic acid]	20%-40%
NCC1C2CCC(CC2)C1S(=O)(=O)O (stereo not shown) [Compound N33, 3-(aminomethyl)bicyclo[2.2.2]octane-2-sulfonic acid]	<20%
O=S(=O)(O)CCCNCc1cccs1 [Compound N43, 3-[(thiophen-2-methyl)amino]-1-propanesulfonic acid]	20%-40%
O=S(=O)(O)CCCNC1c2ccccc2-c2ccccc21 [Compound N44, 3-(9H-fluoren-9-ylamino)propane-1-sulfonic acid]	20%-40%
O=S(=O)(O)CCCNCc1ccco1 [Compound N48, 3-[(2-furylmethyl)amino]-1-propanesulfonic acid]	<20%
O=S(=O)(O)CCCNc1ccc2c(c1)CCC2 [Compound N49, 3-(5-indanylamino)-1-propanesulfonic acid]	<20%
O=S(=O)(O)CCCNc1cccc2c1CCC2 [Compound N50, 3-(4-indanylamino)-1-propanesulfonic acid]	<20%
CC(C)(NCCCS(=O)(=O)O)c1cc2ccccc2s1 [Compound N52, 3-{[2-(2-benzothiophenyl)-2-propyl]amino}-1-propanesulfonic acid]	20%-40%
COc1cc2c(cc1OC)C(NCCCS(=O)(=O)O)CC2 (stereo not shown) [Compound N53, 3-[(5,6-dimethoxyindan-1-yl)amino]propane-1-sulfonic acid]	<20%
CC(C)(NCCCS(=O)(=O)O)c1ccc(Cl)cc1 [Compound N54, 3-(4-chlorophenyl-2-propylamino)-1-propanesulfonic acid]	<20%
CC(NCCCS(=O)(=O)O)c1cccs1 (stereo not shown) [Compound N55, 3-[(1-thien-2-ylethyl)amino]-1-propanesulfonic acid]	<20%
COc1ccc2c(c1)CCC2NCCCS(=O)(=O)O (stereo not shown) [Compound N56, 3-[(5-methoxyindan-1-yl)amino]propane-1-sulfonic acid]	>40%
CC(C)(NCCCS(=O)(=O)O)c1ccc(F)cc1 [Compound N57, 3-(4-fluorophenyl-2-propylamino)-1-propanesulfonic acid]	<20%
O=S(=O)(O)CCCNC1CCc2cc(F)ccc21 (stereo not shown) [Compound N58, 3-[(5-fluoroindan-1-yl)amino]propane-1-sulfonic acid]	<20%
CC1Cc2ccccc2C1NCCCS(=O)(=O)O (stereo not shown) [Compound N59, 3-[(2-methylindan-1-yl)amino]propane-1-sulfonic acid]	>40%
Cc1ccc(C(C)(C)NCCCS(=O)(=O)O)s1 [Compound N60, 3-{[1-methyl-1-(5-methylthien-2-yl)ethyl]amino}-1-propanesulfonic acid]	<20%
COc1cccc2c1CCC2NCCCS(=O)(=O)O (stereo not shown) [Compound N61, 3-[(4-methoxy-2,3-dihydro-1H-inden-1-yl)amino]propane-1-sulfonic acid]	<20%
COc1ccc2c(c1)C(NCCCS(=O)(=O)O)CC2 (stereo not shown) [Compound N62, 3-[(6-methoxyinden-1-yl)amino]propane-1-sulfonic acid]	<20%
